The source gives no read counts; variants with many changes may rest on few reads.
B1: LINE1-mini (parent)
chain: GGCAGAGCUCAACACAGCGUGGCAAAGUGGCUGUGGCUAGACUGCC

Variants of: B1
Experiment: self-cleavage, relative activity (ratio to wild type); higher = more cleavage; in vitro, sequencing; the parent is a self-cleaving ribozyme

Row | Variant | self-cleavage
1 | C15G A26U G29U G40U | 0.04
2 | C15U G17U U20C | 0.03
3 | C15A C37U C42A | 0.02
4 | C15U C23U A41G | 0.68
5 | A16C C18G G40C | 0.04
6 | C15U C18A U43G G44U | 0.09
7 | A14U U20A C42U | 0.09
8 | C15U G29C G33U | 1.39
9 | A14U U34A U38A | 0.25
10 | C15G C31A G40A | 0.02
11 | A14U U20A G27U A39C G40U U43C | 0.04
12 | C15G U20G G27U C46A | 0.03
13 | A14U U32G C46G | 0.08
14 | C15U U20C U28G | 0.9
15 | C15G A16U U20C G30A G36U | 0
16 | C15U G21C C31U | 0.41
17 | C15A G22A C31A A39U | 0.02
18 | C15U G30U G33C G44A | 0.05
19 | A16C G19A A24U | 0.05
20 | A16C C18U G30C G33U | 0.08
21 | C15U C18G G22A U38G | 0.05
22 | C15G A26C U28G | 0.02
23 | C15G A39C C45A | 0.03
24 | C15G A26U U43C | 0.02

Row | Variant | self-cleavage
25 | C15U U28A G40A C42U C45G C46U | 0.05
26 | C15G G21U A39C G40A | 0
27 | C15A A39G C45A | 0.04
28 | C15G G19A G36U | 0.04
29 | C15G U28C G29C G35A | 0.02
30 | C15G C37A U38C C45G | 0.04
31 | C15U G19C A39C C46U | 0.14
32 | C15A C37A U43G | 0
33 | A14U U20G A24G U28C U32G A41G | 0.01
34 | C15U C18U A26U | 0.17
35 | A14U G21C G27U | 0.76
36 | C15U G33U G40A U43G C45A | 0.03
37 | C15G G19A G21U G22U | 0.06
38 | A14U G40A G44C | 0.08
39 | C15U A24G U43C | 0.07
40 | C15G U20G A24G C31G | 0.01
41 | A16C A41C C42G | 0.08
42 | C15U U38G C45U | 0.03
43 | C15A G22C C45A | 0.02
44 | C15G G21A G35U | 0.03
45 | C15A A24C G30C | 0.05
46 | C15A G17A G29C | 0.09
47 | C15A G21C C23G U28C A39U | 0.03
48 | C15A U20C C23U A41C | 0.05

Row | Variant | self-cleavage
49 | C15U C18G G22U C37U | 0.03
50 | C15A G17U U32G G44U | 0.01
51 | C15A G22C C37A | 0.08
52 | A14U U20A G22U G36U | 0.03
53 | C15A G35A C45A | 0.01
54 | C15U G21U G44A | 0.17
55 | A16C G17C C46U | 0.02
56 | C15U A25G C37U | 0.05
57 | C15A G22U A24G G40U | 0.09
58 | C15A A24U U34C A39G G40C | 0.02
59 | C15A A16G C31U | 0.02
60 | C15G C18G C23U | 0.04
61 | C15U C42G C45A | 0
62 | C15A A25G A26C U43C | 0.05
63 | A14U U32C C42A | 0.03
64 | C15A G27A U34A | 0.49
65 | C15A U34A C37A | 0.03
66 | C15U A24C C45A | 0.03
67 | C15U A16G A25U | 0.52
68 | C15A A24G G35U | 0.07
69 | C15G G30A U34A | 0.01
70 | C15U A25C G36C G44C | 0.01
71 | A16C G17U G21C C37A | 0.06
72 | A16C C31A G36A | 0.03

Row | Variant | self-cleavage
73 | A16C G17A G30A | 0.06
74 | A16C G19C A26U | 0.45
75 | A16C A24C U38A | 0.03
76 | C15U A16C A25C | 0.05
77 | A14U G21U G27A U38A C42A | 0.06
78 | C15G A16G G21C U38G G40C | 0.01
79 | C15A G21A U34G | 0
80 | C15A A25G G30U U34G C37A | 0.22
81 | A14U G29U U32G C46G | 0.01
82 | C15A G35C U38G G40C | 0.09
83 | A14U G19A U38A | 0.1
84 | A14U G22A U34A C45A | 0.07
85 | C15G U28G C31U G35A A39G | 0.02
86 | A16C C23A C42A | 0.06
87 | C15G A16C C23U | 0.03
88 | C15G U20A G29C | 0.38
89 | C15G G22C G40A C42G | 0
90 | C15U G19U G21A | 1.26
91 | A16C A26G G33U C46A | 0.05
92 | C15U G21A C37A | 0.07
93 | A14U G22A G29U | 1.55
94 | A14U G19A C37G | 0.05
95 | C15A U38G G44C | 0.01
96 | C15A G17U A24G G29C | 0.06

Row | Variant | self-cleavage
97 | C15U C23G G30A U43G | 0.11
98 | C15G A16C G36U U43C | 0.01
99 | C15U G22A G36C U38C | 0.03
100 | C15A G17A A26C U28A U38A | 0
101 | C15U A39U C46U | 0.26
102 | C15A G19U A26U | 0.06
103 | C15G A16U G30U | 0.05
104 | A16C C23G A25C G29C U32A A41C | 0.05
105 | C15G G19A C31G | 0.02
106 | C15U U38G A41U | 0.02
107 | C15U G27U G30U C31A U38A C46G | 0
108 | A14U U28A C37G G44U C45U | 0.02
109 | C15U C23U U28A G30C | 0.59
110 | C15U C18A A25C U43A | 0
111 | C15G G30U G33U | 0.04
112 | C15A U32G C46U | 0.03
113 | C15A G17U G19U C37A | 0.02
114 | C15U G29A G40A U43A | 0.12
115 | A16C C23A C45A | 0.13
116 | C15U G22C G35A G44A | 0.05
117 | C15A C18A C23U G27A A41G | 0.03
118 | C15U G29U A39G | 0.06
119 | C15G C18G U20G C23G A24C G27A | 0.01
120 | C15G C18U A25G | 0.01

Row | Variant | self-cleavage
121 | C15A A26G G33A | 0.03
122 | C15U A24G A26U A41U C42A | 0.1
123 | C15G A24C G27U C31U G33A U43G C46G | 0.01
124 | A16C C23A A41G U43C | 0.01
125 | A16C C23A A25U | 0.06
126 | A14U U20G U28G C31U C42G | 0
127 | A14U G19C A24G | 0.35
128 | C15U A25C C46A | 0.09
129 | C15A A26C G33A | 0.04
130 | A16C C37U U43A | 0.16
131 | C15A G17C G21U C45G | 0.03
132 | C15G G17U C42U | 0.06
133 | C15U A16U C31U G35A | 0.01
134 | C15U G40U U43C | 0.15
135 | C15A G29C C31U A41C | 0.03
136 | C15A A24U U28A G40U | 0.08
137 | C15A G17U G29U | 0.09
138 | C15A G22U A24G U43C | 0.01
139 | C15U G21A G22U A26C | 0.74
140 | C15G U28A U38A | 0.04
141 | C15G G27C U28A | 0.06
142 | C15U G40C A41C | 0.1
143 | A14U G17U G22U A26U C37A | 0
144 | A14U G30U A41U G44U | 0.04

Row | Variant | self-cleavage
145 | C15A A16U G19A U20C G30A U38A G40A | 0.07
146 | C15G G21U C37U | 0.02
147 | A14U G27U U28A G29U G35A | 0.54
148 | C15G G19A G33A G36C | 0.03
149 | C15A G36A A39U G40U U43A | 0.04
150 | C15G C18A G29A G36A | 0.09
151 | C15G C23U G30U G44U | 0.02
152 | C15G A25C A41C | 0
153 | C15A G19C U28C G30A | 0.1
154 | A14U G29A A39U G44C | 0.03
155 | C15U G19U U28C A41C | 0.08
156 | C15U G22U C46A | 0.57
157 | C15U G17U U28A C37A | 0.05
158 | C15A G22U G27A G33U | 0.35
159 | C15G C23A G33C | 0.21
160 | C15U G17C U38G | 0.02
161 | A14U U28C C46A | 0.05
162 | C15U A24C U38A | 0.04
163 | C15G G33C U38G | 0
164 | C15A U20C C31G U38A | 0
165 | C15A A16C G22C A25U U32C | 0.02
166 | C15U G29A G36C | 0.04
167 | C15U U32G C42A | 0
